From PMC6919601, “Identification of Plasmodium dipeptidyl aminopeptidase allosteric inhibitors by high throughput screening” (PLoS ONE, 2019)
In all, about 110,000 compounds went through this assay and about 230 (0.21%) showed an effect of 50% or more. The list shows a part of the results.

biological target: DPAP1 (Plasmodium falciparum, UniProt Q8IIJ9); experiment: primary screen, percent inhibition; read by cleavage of a fluorogenic dipeptide substrate; higher = more effect of the substance; design: species or system P. falciparum D10 trophozoite lysates; single well
Sequence (Q8IIJ9 whole entry, looked up): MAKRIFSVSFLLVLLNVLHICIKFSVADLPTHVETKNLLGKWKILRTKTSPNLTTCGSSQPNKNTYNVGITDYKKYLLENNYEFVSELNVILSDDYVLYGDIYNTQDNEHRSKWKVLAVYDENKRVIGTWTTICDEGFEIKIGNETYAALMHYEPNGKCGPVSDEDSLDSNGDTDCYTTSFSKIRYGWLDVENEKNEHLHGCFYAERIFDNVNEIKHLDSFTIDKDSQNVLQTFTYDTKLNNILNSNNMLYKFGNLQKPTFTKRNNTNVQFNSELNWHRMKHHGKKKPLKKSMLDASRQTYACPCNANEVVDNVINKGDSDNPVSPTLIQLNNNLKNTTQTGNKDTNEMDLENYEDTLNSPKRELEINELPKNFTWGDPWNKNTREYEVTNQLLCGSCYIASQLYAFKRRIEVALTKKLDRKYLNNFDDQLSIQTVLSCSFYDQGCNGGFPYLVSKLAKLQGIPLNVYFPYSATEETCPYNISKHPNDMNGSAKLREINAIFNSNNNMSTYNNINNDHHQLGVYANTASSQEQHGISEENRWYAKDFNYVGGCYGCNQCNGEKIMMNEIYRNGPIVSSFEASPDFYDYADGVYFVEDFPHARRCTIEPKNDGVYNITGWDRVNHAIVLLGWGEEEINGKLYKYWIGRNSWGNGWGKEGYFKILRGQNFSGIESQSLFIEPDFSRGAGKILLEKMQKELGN
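Note: 30 min substrate incubation versus DMSO and 10 µM JCP410 controls.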

Structure (SMILES)	% Inhibition @ 10 uM [%]
COCc1nnc(NC(=O)c2c(-c3ccccc3)noc2C)s1	1.91
COc1ccc(Br)cc1/C=C/C(=O)O	14.4
CCN(CCN(C)C)Cc1ccccc1Br	1.08
Cc1cc(C)c(C#N)c(SCC(=O)c2ccc3c(c2)OCO3)n1	0.343
COc1ccc2c(Cl)c(C(=O)N3CCCCC3)sc2c1	7.42
CCN(CCN(C)C)Cc1ccc(F)c(Br)c1	-0.292
O=C1N=C(N2CCN(Cc3ccccc3)CC2)S/C1=C\c1ccccc1O	11.1
CCNC(=S)N1CCn2cccc2C1c1ccc(OC)cc1 (stereo not drawn)	4.35
CCOC(=O)C1CCN(Cc2cc(Br)cs2)CC1	3.25
CC(CNS(=O)(=O)c1ccc(-n2cccn2)cc1)c1ccccc1 (stereo not drawn)	1.09
CC1CCN(c2c(C#N)c(Cl)nc3ccccc23)CC1	-1.28
Cc1nn(CC(=O)NCC23CC4CC(CC(C4)C2)C3)c(C)c1Cl	1.76
O=S(=O)(NCc1ccccn1)c1ccc(-c2ccc(O)nn2)s1	-6.53
COc1ccc(-c2nc(=O)c3ccccc3o2)cc1	-8.04
CCOC(=O)c1cc(-c2ccc(F)cc2)n(CC(=O)NC(C)(C)C)c1C	-3.64
CC(C)C[C@H](NC(=O)N1CCN(c2ccc(C(F)(F)F)cc2[N+](=O)[O-])CC1)C(=O)NCC#N	-1.82
Cc1nc2c(C(=O)NCCc3ccccc3)cnn2c(O)c1Cl	1.27
CCOCCCNC(=O)Cc1ccc(Cl)cc1	3.48
CC(C)CN(CC(C)C)S(=O)(=O)c1csc(C(N)=O)c1	1.13
Cc1c(NC(=O)CCN2C(=O)/C(=C\c3ccc(Cl)cc3)SC2=S)c(=O)n(-c2ccccc2)n1C	-2.15
Cn1cnc2c3cccnc3ccc21	1.72
COc1ccc(/C=C2/SC(=O)N(C(C)C)C2=O)cc1Br	0.161
COc1cccc(CNC(=O)C(C)n2sc3ccccc3c2=O)c1OC (stereo not drawn)	-6.82
COc1ccc(S(=O)(=O)NCCc2nnc3ccc(SCc4ccccc4Cl)nn23)cc1	-1.11
COc1ccc(C(=O)N/C(=C\c2ccco2)C(=O)NCCN2CCOCC2)cc1	-0.178
O=C(O)CCCCCNS(=O)(=O)c1ccc(Cl)c(C(F)(F)F)c1	-8.38

Structure (SMILES)	% Inhibition @ 10 uM [%]
Cc1ccc(Cl)cc1-n1nnc(-c2nc(-c3ccccc3)no2)c1N	-1.59
CC(CCc1ccccc1)NC(=O)C1COc2ccccc2O1 (stereo not drawn)	5.03
COc1ccc(N2CCN(C3CC(=O)N(c4ccc(F)cc4)C3=O)CC2)cc1 (stereo not drawn)	-4.91
N#C/C(=C\C1=Cc2ccccc2OC1)C(=O)NC1CCCCC1	3.72
O=C(O)c1cccc(N2C(=O)c3ccc(Oc4cccc([N+](=O)[O-])c4)cc3C2=O)c1	1.9
CCCCN1CCc2c([nH]c3c(C)cccc23)C1=O	1.7
O=C(c1ccccn1)c1conc1C(=O)c1ccc(Br)cc1	3.72
COc1ccccc1/C=C/CNc1ccc(F)c(F)c1	-0.414
O=C(CNS(=O)(=O)c1cccs1)N1CCN(C(=O)c2ccco2)CC1	4.06
Cc1ccc2oc(C(=O)Nc3nc(-c4ccc(S(=O)(=O)N5CCOCC5)cc4)cs3)c(C)c2c1	-3.18
CCOC(=O)N1CCC(NC(=O)CS(=O)Cc2nc(-c3ccccc3F)oc2C)CC1 (stereo not drawn)	-1.05
CC1=C(C(=O)Nc2ccccc2)C(c2ccccc2)C(C#N)=C(SCc2ccncc2)N1 (stereo not drawn)	27.8
COc1ccc(-c2cn3nc(N4CCC(C(=O)NCCc5cccs5)CC4)sc3n2)cc1	-3.6
COc1ccc(OC)c(NC(=O)C2C3CCC(C3)C2C(=O)O)c1 (stereo not drawn)	-7.02
COc1ccc(CNC2CCSC2)cc1 (stereo not drawn)	-5.44
O=C1CC(c2ccccc2Br)c2cc3c(cc2N1)OCCO3 (stereo not drawn)	-8.4
CC1CCCC(N[C@H]2CC[C@H](O)CC2)C1 (stereo partly drawn)	-0.0953
NC(=O)C1CCN(C2CCc3ccccc3C2)CC1 (stereo not drawn)	1.57
Cc1ccc(NC(=O)c2ccco2)c(NC(=O)c2ccco2)c1	-5.71
Cc1c2c(=O)n(-c3nc4ccccc4s3)[nH]c2cc(=O)n1CCc1ccccc1	-0.834
COc1ccc(C2(O)C(C)[N+](c3ccccc3)=C3SCCCN32)c(F)c1 (stereo not drawn)	-3.23
Cc1nc2ncccn2c1-c1csc(Nc2ncccn2)n1	4.26
COc1ccc(CCN2C(=O)C(NC(=O)CC(C)C)(C(F)(F)F)c3c(O)nc(O)nc32)cc1OC (stereo not drawn)	1.91
Cc1nnc(SCC(=O)NCc2ccc(S(N)(=O)=O)cc2)nc1O	3.37
CCOc1ccc(NC(=O)C2CC(C)=C(C)CC2C(=O)O)cc1 (stereo not drawn)	-1.42
C=CCNC(=O)/C(=C\c1ccccc1)NC(=O)c1ccco1	2.3

Structure (SMILES)	% Inhibition @ 10 uM [%]
CC(C)c1ccc(S(=O)(=O)c2nnn3c2nc(N)c2ccccc23)cc1	-5.07
Cc1ccc(-c2nnc(N3CCN(C(=O)CN4CCOCC4)CC3)c3ccccc23)cc1	-4.62
CNC(=O)CCCc1cn(Cc2ccccc2Cl)c2ccccc12	3.27
CCCSc1nnc(NC(=O)c2nc(S(=O)(=O)Cc3ccc(C)cc3)ncc2Cl)s1	0.758
COc1ccc(/C=c2\sc3nc(-c4ccccc4Br)nn3c2=O)cc1OC	-1.18
Cc1cc(C)c2c3c(sc2n1)C(c1cccc(Cl)c1)C(C#N)=C(N)O3 (stereo not drawn)	-2.45
CC(NCc1c(F)cccc1Cl)c1ccccc1 (stereo not drawn)	-4.68
CCN(CC)CCCSc1nc2ccccc2s1	4.42
Cc1ccccc1CNCC1CCC(C(=O)O)CC1 (stereo not drawn)	-1.99
CCSc1nc(N)c(C#N)c(-c2ccco2)c1C#N	-6.09
COc1ccc2c(CNCc3cccc(Cl)c3)c(C(=O)O)[nH]c2c1	-2.68
CCCC1CCC(C2CCC(C(=N)NO)CC2)CC1 (stereo not drawn)	-2.42
O=C(Nc1ccccc1F)c1ccccc1Br	1.91
O=C(Nc1ncc(Cc2cccc(Cl)c2Cl)s1)C1CC1	-16.5
CCOC(=O)C1=C(CSc2nccn2C)NC(=O)NC1c1ccc2c(c1)OCO2 (stereo not drawn)	-4.04
O=C(O)CCC(=O)Nc1ccc(Oc2ccc(Br)cc2)cc1	3.24
CCOC(=O)N1CCC(NC2CCCCCC2)CC1	-2.18
Cc1cccc(NS(=O)(=O)c2ccc(Cl)cc2)n1	-2.36
N#CC1=C(N)SC(N)=C(C#N)C1c1ccccc1Cl	18.7
O=C(O)CCC(=O)Nc1ccc(Oc2ccc(Cl)cc2Cl)cc1	3.58
Cc1ccc(S(=O)(=O)NC(=O)Nc2ccc(Cl)cc2C)cc1	-1.06
COc1ccc(CN2CCN(Cc3ccc(F)cc3)CC2)cc1OC	-0.69
CCCCNC(=O)c1ccc(C2SCC(=O)N2Cc2ccccc2)cc1 (stereo not drawn)	1.19
CCOC(=O)c1cnc(SCC(=O)NC2CCCCC2)nc1N	2.21
CCCCCN1C(C(=O)c2ccccc2)=C(NC(=O)c2ccc(F)cc2)c2ccccc2S1(=O)=O	0.315
O=C1C=C(N2CCN(c3ncccn3)CC2)C(=O)N1c1ccc(Br)cc1	0.76

Structure (SMILES)	% Inhibition @ 10 uM [%]
Cc1c(Cl)cccc1NC(=O)/C=C\C(=O)O	-0.197
COc1ccc(-c2nc3cc(C)ccn3c2NC(=O)COc2ccccc2)cc1	-2.74
COc1cc(/C=N/n2c(SC)nnc2-c2ccccc2)c(Cl)cc1O	5.44
COc1ccc(CN2CCCCC2C)cc1C (stereo not drawn)	-6.18
CC[C@H](NC(=O)[C@@H](NC(=O)c1ccc(-c2ccccc2Cl)cc1)C1CCCCC1)C(=O)c1nc2ncccc2o1	-1.82
CCSC1=C(C#N)C(=O)NC(c2ccc(O)cc2)S1 (stereo not drawn)	7.94
O=C(O)CCCNCP(=O)(O)CCc1ccccc1	0.0719
COc1ccccc1OCc1ccc(C(=O)N2CCCCC2)o1	0.909
CC(C)CCNC(=O)CCN1C(=O)c2ccccc2Sc2ncccc21	-2.1
COc1ccc(-c2[nH]c3c(C#N)cnn3c2NC2CCCC(C)C2C)cc1 (stereo not drawn)	0.596
CCOC(=O)N1CCN(C(=O)C2CCN(C(=O)c3cc4sccc4n3CC)CC2)CC1	4.95
CCc1nnc(NC(=O)CSc2nnc(Cc3cccn3C)n2-c2ccccc2)s1	0.44
COc1ccc(CCNC(=O)c2cc(C(F)(F)F)nn2C)cc1	1.84
O=C(Nc1cccnc1Cl)c1cc(-c2ccccc2F)no1	-0.361
Cc1nnc(N2CCC(C(=O)NCC(C)c3ccccc3)CC2)c2nn(-c3ccccc3)c(C)c12 (stereo not drawn)	2.99
Cc1ccc(SCCC(=O)NCc2ccccc2Cl)cc1	2.13
CCSC1=C(C#N)C(c2ccccc2)C(c2ccccc2)C(=O)N1 (stereo not drawn)	3.19
CCOc1ccc(CC(=O)Nc2ccc(OC)cc2Cl)cc1OCC	-4.52
CC1(C)CC(n2c(=S)[nH]c3c(c2=O)C2(CCCC2)Cc2ccccc2-3)CCO1 (stereo not drawn)	1.72
COc1ccc(/C=C2/CCCC3=C2OC(N)=C(C#N)C3c2ccc(OC)cc2OC)c(OC)c1 (stereo not drawn)	4.7
Cn1c(C(=O)N2CCCC(C(=O)N3CCC(Cc4ccccc4)CC3)C2)cc2sccc21 (stereo not drawn)	-5.03
O=C(NCc1cccnc1)C(=O)NC1CC1	-1.33
C=CCn1c(=N)c(C(=O)NCCCOC)cc2c(=O)n3cccc(C)c3nc21	-1.47
Cc1cccc(CCNC(=O)CCc2nnc3n(Cc4ccc(F)cc4)c(=O)c4ccccc4n23)c1	-2.42
